This is one part of the list.
T1: UNK ZnF1-3 (human, UniProt Q9C0B0 31-174)
T1 sequence: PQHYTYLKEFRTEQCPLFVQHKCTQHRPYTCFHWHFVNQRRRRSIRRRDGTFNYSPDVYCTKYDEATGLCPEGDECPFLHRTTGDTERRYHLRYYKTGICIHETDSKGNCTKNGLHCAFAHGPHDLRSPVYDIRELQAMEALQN

B1: chr11:22899103:22899104:+_ENSMUSG00000007739_ENSMUST00000173867|mus_hu|FALSE|FALSE (ssRNA)
RNA: GGGAGUUCUACAGUCCGACGAUCUAAAAUAUAGGCUCUCUCUUCUCGCAGCACUCGGUCCAUCUGGGCAUAGUCAGAAACCACUAUUUGAUUAUCCAUGUCUGUUUUGGGAGCAGAUAAGCAAAACUGAAUAAGCCCAAUCUUCAACAGAGGAUUGAGCAUCA
B2: chr12:104022963:104022964:-_ENSMUSG00000041702_ENSMUST00000045652|mus_hu|FALSE|FALSE (ssRNA)
RNA: GGGAGUUCUACAGUCCGACGAUCAGAAAAUACAUCUUAGUGUGCAAUCCAAUGCACAUGGAUUGGUAGAUGAAAGGUAAAAUGCAAAAAAGUAUGAAAAUACAGUCCUUUAAAUGUGGCAAUAAAGUUUAACAUACUGAUAUACAACAGAGGAUUGAGCAUCA
B3: chr1:1337531:1337532:-_ENSG00000242485_ENST00000344843|hu_mus|FALSE|FALSE (ssRNA)
RNA: GGGAGUUCUACAGUCCGACGAUCCACCACUCUGGAAAAGAUACCUUCAGGCUCCUUUCCAUCCCCCAAAGCUGCAGCAAAUCCCUCCUGCUGCCUCCGCUUAGCCAAUGCAGCCAAAGAUUUAAACGUCUUUGGUUCAUAGAUCAACAGAGGAUUGAGCAUCA
B4: chrX:69798090:69798091:-_ENSMUSG00000031343_ENSMUST00000055966|mus_mus|mus_mus_mus_hu_False|38_48 (ssRNA)
RNA: GGGAGUUCUACAGUCCGACGAUCAAGUCCCCGGGUUCUUGUCGUCUUGAUUCCCCUUGACCAGUGGUUCCAGGGAGAAUAUUAAUCAGGAGAAGAAGUACAACUCUGGUCAUGUAACAGUGACUUGUUUGUGUGAUUAUCAUCCAACAGAGGAUUGAGCAUCA
B5: chr3:96579679:96579680:+_ENSMUSG00000028098_ENSMUST00000029740|mus_mus|FALSE|FALSE (ssRNA)
RNA: GGGAGUUCUACAGUCCGACGAUCAGGCCGACUUGGUCCCCAAAAGUCAGUGUGAGUUUGGUGACCUCUCUCAUUGGCUCUAUUAUCUUGGUCCAGUGGAUUGCUACUUAGAAAUGGUCUAAAAUCUUGUAAAAACAUUGUGUGCAACAGAGGAUUGAGCAUCA
B6: chr1:163112212:163112213:-_ENSG00000143248_ENST00000313961|hu_hu|motif|central (ssRNA)
RNA: GGGAGUUCUACAGUCCGACGAUCUUUAUUUAUCCAGAAGCAUGAGUCACAUAGUACAUAAAGUAUUGAAUACAAAAUUCGGAAGAUAAACACAAUUUUUCUUGAAUUUAAAAUAUAUGGGAUAAAUGCUUACAAAUGGAUUUACAACAGAGGAUUGAGCAUCA
B7: chr13:77182921:77182922:-_ENSMUSG00000021597_ENSMUST00000151524|mus_mus|FALSE|FALSE (ssRNA)
RNA: GGGAGUUCUACAGUCCGACGAUCAGUAUGCACUCCAGGACAUACAUUUAGAUUCUCAGGCAGCUCUUUAAGAACACUUGGGAGCUUCUUUAAUGUCUUUAUAUUCCUAGCAUAAACAUCCAAUAACCAGUCAGUAUGUGCAUUCAACAGAGGAUUGAGCAUCA
B8: chr19:8913615:8913616:-_ENSMUSG00000071658_ENSMUST00000096259|mus_hu|mus_mus_mus_hu_False|8_18 (ssRNA)
RNA: GGGAGUUCUACAGUCCGACGAUCAGGGUACCAAAACCUUCUGCCUGAAAUGGGUGCCCCACCCAGUAGGGAGUUGCAGCUGAAAGUAUCUGAUGCAGAAGCAGUGACUAUACGAAAGGUCACUAGAGAUGCUCAGAAGGCCAGCAACAGAGGAUUGAGCAUCA
B9: chr7:66532262:66532263:+_ENSMUSG00000025326_ENSMUST00000107537|mus_mus|motif|central (ssRNA)
RNA: GGGAGUUCUACAGUCCGACGAUCUCCUUGAACUAGGCUGUAAAGAACAGUGAUUCUUCUUUCACUGUACAUGCGAAUUCGGUUGUCAUAAUAUAAUCCCAGAUUCUUUGUGACAGCAUUCAAUAUAAAGGGACAUGUCAUAAACAACAGAGGAUUGAGCAUCA
B10: chr8:95500983:95500984:-_ENSG00000164944_ENST00000437199|hu_hu|hu_hu_hu_mus_True|28_88 (ssRNA)
RNA: GGGAGUUCUACAGUCCGACGAUCAGAACACAUCUAUCGAGUAAAGGGAGCGUACAUACGGCCUCUACCACUGCCUCCACUAACAAACUUUCCUCUCGAGCCUCCACCUGCCGCUAUUGUACUAGCCCAGGACGGUCCCAGGCCCAACAGAGGAUUGAGCAUCA
B11: chr8:95500983:95500984:-_ENSG00000164944_ENST00000437199|hu_hu|hu_hu_hu_mus_True|8_78 (ssRNA)
RNA: GGGAGUUCUACAGUCCGACGAUCAGAACACAUCUAUCGAGUAAAGGACCGUACAUGGACGACCUCUCCACUGCCUCCACUAACAAACUUUCCUCUCGAGCCUCCACUGCCGCUAUUUGUACUAGCCCCAGGAAGGUCCAGGCCCAACAGAGGAUUGAGCAUCA
B12: chr14:78183846:78183847:+_ENSG00000119705_ENST00000557342|hu_hu|hu_hu_hu_mus_False|1_58 (ssRNA)
RNA: GGGAGUUCUACAGUCCGACGAUCUCUCAGAAAUCUUUCUUCAUCAGAUGUUUGAGCUCCGUGCAAAGCCUUUGCUCUUCUAGUGUGAACGUGGAUCUAUGGGAGGGAAAGCACUGUCAGAAAAGGUAAUUUUUUUUUCCGAAGCAACAGAGGAUUGAGCAUCA
B13: chr4:95690885:95690886:+_ENSMUSG00000028572_ENSMUST00000156910|mus_mus|mus_mus_mus_hu_False|28_88 (ssRNA)
RNA: GGGAGUUCUACAGUCCGACGAUCUUUAGAAAAUGUUAAAUACCAUGAGCAUGCUAAUUCAAAGGCUUAUUUUAUUUUACCAGAAGUCACAGGCAAGCAGACACUACAAACAUACAAGAAAAUGAAACUCAACAAUAUAACUGUCAACAGAGGAUUGAGCAUCA
B14: chr6:42629286:42629287:-_ENSMUSG00000036667_ENSMUST00000045054|mus_mus|FALSE|FALSE (ssRNA)
RNA: GGGAGUUCUACAGUCCGACGAUCAAAUAAAACCUUAUGACCAGUUACAACUACCCGACCCCGGCCAUAGCGAGCUGCAGCUAUCACACAGCCAUGGUAGGUAUCUAGCCCCAAAGGAAAAGCCAAAGACCCAUGAACUAGUAGCAACAGAGGAUUGAGCAUCA
B15: chr2:198351390:198351391:-_ENSG00000144381_ENST00000345042|hu_hu|hu_hu_hu_mus_False|88_108 (ssRNA)
RNA: GGGAGUUCUACAGUCCGACGAUCUCAUUCUCACUCUCCACAGAAAGGCUGCUUAACAACUCUCAUGUGGUGACACAGCGCUACAGUCCUGAUGCUCACAGAACAGUAGAGAUGCCUCAGUGAUUUAAGUUGAAAGCAGGACACCAACAGAGGAUUGAGCAUCA
B16: chr11:68312385:68312386:+_ENSG00000110075_ENST00000393800|hu_hu|FALSE|FALSE (ssRNA)
RNA: GGGAGUUCUACAGUCCGACGAUCCUUGCUGAAGAAACUGGCAAGUAGUGGAUUCAAAGGGGAAUCGUUUAGGAGGAAGCUAUAUAAUUUCAUUAGCAAGGAUUCAUCUUCUCCCAGUCUAUCAUUCAUCUGGGAGACAUCAGACAACAGAGGAUUGAGCAUCA
B17: chr17:2569311:2569312:+_ENSG00000007168_ENST00000397195|hu_hu|FALSE|FALSE (ssRNA)
RNA: GGGAGUUCUACAGUCCGACGAUCUGUCCAUUUUUUUUCCAAAAGACCAGCAUACUUUUUAUCUAAUUCUUCAUUCACAUCUAAUUCAGCUUCCUUUUUAAAAACUGAAUAUGCCUCUUCAUAGCCAUUUGAACGAAGAUAAUCCAACAGAGGAUUGAGCAUCA
B18: chr7:108212191:108212192:+_ENSG00000128590_ENST00000249356|hu_hu|FALSE|FALSE (ssRNA)
RNA: GGGAGUUCUACAGUCCGACGAUCGUUAUCAUUAAAAUGCAGAUUGCAAAGAUGAAAAUUGACUGGGGAGUAGCCAUUUCUAAUAUCCUGCACCCUCCGACUACUGCUGCUCCUCCACAGAGCUGAGGCGCUGGCGACCCUGACCAACAGAGGAUUGAGCAUCA
B19: chr16:87451109:87451110:-_ENSG00000140948_ENST00000268616|hu_mus|FALSE|FALSE (ssRNA)
RNA: GGGAGUUCUACAGUCCGACGAUCCUUCUCCAUGGUGAGCUGUUUAAAGACAGGGUAAUACUUGUGCAAGCGCAGCUUCCUAAGCCAGUCUAAAAUCCCAUUCUGCUCCUGGGGCUGAGGGGUCUGCAGACUGGAGGGCAUAAGCAACAGAGGAUUGAGCAUCA
B20: chr6:13786967:13786968:-_ENSMUSG00000048216_ENSMUST00000115492|mus_hu|FALSE|FALSE (ssRNA)
RNA: GGGAGUUCUACAGUCCGACGAUCGGAGGAUAAGGAUACAGCCUCAGUCAAGUCUCAUGAUCUAGAUAUAAGAACAAGGAAAAGAUAGAUCCAUACAUUUUACUGAAAAUAUAAUCCACAAAGAGAACUGAUCUGAUCUGCAGUCAACAGAGGAUUGAGCAUCA
B21: chr14:76420884:76420885:+_ENSG00000119685_ENST00000298832|hu_hu|motif|central (ssRNA)
RNA: GGGAGUUCUACAGUCCGACGAUCCUACUGCCACUUCUGCUCGAAGGCUUUGGGGACUUUGAGGCAGCAAAAAAAAAAAUACGGUGGACCCCUUGAAGUGCUGGUGGAUGCUUCACCCUCAAUCAUGCACCCAGGAGUGGUGAACAACAGAGGAUUGAGCAUCA
B22: 65871611_65871731_2547_CDS_ENSG00000116675_ENST00000371069|human|control|control (ssRNA)
RNA: GGGAGUUCUACAGUCCGACGAUCAGAGGAGUGGGGCAUGCUGGGCUGAGGCUUAGGCUGUGGCUGCUGCCAGUUGUAGGCACCUCCCUGCUGCCACCCGCCACCCAUAGGCUGGGGAGACGCCUUCUGUGGCGAGCUGAGAGGCAACAGAGGAUUGAGCAUCA

Target: T1, UNK ZnF1-3
Assay: nsRBNS (natural sequence RNA bind-n-seq); RBNS binding buffer (assumed for nsRBNS): 25 mM Tris pH 7.5, 150 mM KCl, 3 mM MgCl2, 0.01% Triton X-100, 500 ug/ml BSA, 20 U/ml SUPERase-In, 4 C; UNK is unkempt and MSI1 is Musashi-1; names of the RNAs are library labels; protein concentration not given here; high values mean tight binding

Row | Binder | binding signal [enrichment R]
1 | B1 | 1.09
2 | B2 | 1.11
3 | B3 | 1.02
4 | B4 | 0.763
5 | B5 | 1.02
6 | B6 | 2.69
7 | B7 | 0.963
8 | B8 | 1.05
9 | B9 | 0.479
10 | B10 | 2.04
11 | B11 | 1.46
12 | B12 | 1.09
13 | B13 | 2.19
14 | B14 | 1.07
15 | B15 | 1.01
16 | B16 | 1.14
17 | B17 | 0.494
18 | B18 | 1.2
19 | B19 | 1.15
20 | B20 | 1.06
21 | B21 | 1.77
22 | B22 | 1.26

— article PMC12136788
